Among all 290,000 compounds or so, about 2,100 (0.72%) were called active. Inconclusive results, whose numbers are uncertain, are shown with a selection of clear calls. Calls follow the shape of the dose curve; as a rule, active = well fitted inhibition curve with a large enough effect; inconclusive = small, poorly fitted or top-dose-only effect, or effect the other way; inactive = flat fitted curve, though single readings scatter. Potencies of inconclusive entries are doubtful fits and often do not repeat.
Each compound was assayed against Fructose-bisphosphate aldolase (Giardia intestinalis (strain ATCC 50803 / WB clone C6)) (UniProt A8B2U2) (assay: qHTS Assay for Inhibitors of Fructose-1,6-bisphosphate Aldolase from Giardia Lamblia). Settings: purified Giardia FBPA; activity, negative = inhibition: at 59.6 µM (top of the series) unless noted.
How it was run: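 Giardia FBPA (40 nM reagent) was preincubated 10 min at RT with compound (up to 57.5 uM final), then substrate plus GAPDH/TPI/NAD/arsenate coupling system with diaphorase/resazurin was added; resorufin fluorescence (525/598 nm) was read after 20 min.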
% is scaled to controls: 0 for no effect and ±100 for the full control effect; potency is read from the fitted curve at half-maximal effect; tags tell the direction and shape of the fitted curve.
Also: nearly all actives have a fitted effect of over 55% in size.

UniProt A8B2U2, sequence (A8B2U2 whole entry, looked up): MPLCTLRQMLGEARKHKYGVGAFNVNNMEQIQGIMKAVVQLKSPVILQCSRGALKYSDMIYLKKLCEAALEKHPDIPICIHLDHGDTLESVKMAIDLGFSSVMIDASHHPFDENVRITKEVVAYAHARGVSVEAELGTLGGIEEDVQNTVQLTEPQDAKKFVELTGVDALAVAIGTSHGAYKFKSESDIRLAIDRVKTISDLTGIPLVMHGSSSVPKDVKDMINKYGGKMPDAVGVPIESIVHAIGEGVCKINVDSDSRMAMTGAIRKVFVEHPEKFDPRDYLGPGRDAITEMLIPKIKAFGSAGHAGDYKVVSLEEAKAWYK

SMILES | activity, negative = inhibition | Potency
O=C(COC(=O)c1cccnc1Cl)NCc1ccc2c(c1)OCO2 | inactive: 2.76% | 
CC(C)(C)n1nnnc1CN1CCN2CCCC2C1 (stereo unspecified) |  | inconclusive: 39.8 µM [inhibitor, single point]
CCCCn1c(O)c(/C(C)=N/NC(=O)Nc2ccccc2)c(=O)[nH]c1=O | inactive: 1.28% | 
CCn1ccnc1C(O)c1cccc(OC)c1OC (stereo unspecified) |  | inconclusive: 8.89 µM [inhibitor, partial curve]
CCOc1ccc(Cc2nnc(SCC(=O)c3ccc(OC)cc3)o2)cc1 | inactive: 0.66% | 
COc1ccc(S(=O)(=O)N2CCOCC2)cc1NC(=O)CSc1ncnc2ccccc12 |  | inconclusive: 31.5 µM [inhibitor, single point]
CC1CCN(CCC(=O)Nc2ccc3c(c2)OCCO3)CC1 |  | inconclusive: 15.8 µM [inhibitor, partial curve]
Cc1cccc(/C(N)=N/OC(=O)c2ccc3c(c2)OCO3)c1 | inactive: -6.86% | 
N#C/C(=C\c1cc(O)c(O)c(O)c1)C(N)=O |  | active: 5 µM
O=C(c1cnc2ccccn2c1=O)N1CCCc2ccccc21 | inactive: 3.34% | 
COc1ccc(C2CC(c3ccccc3)Oc3cc(OC)ccc32)cc1 (stereo unspecified) |  | inconclusive: 15.8 µM [inhibitor, partial curve]
COc1ccc(CCNC2CCc3ccccc3C2)cc1 (stereo unspecified) |  | inconclusive: 35.5 µM [inhibitor, single point]
CCOC(=O)c1c(C)oc2c1c(C(c1cccnc1)N1CCN(C)CC1)c(O)c1ccccc12 (stereo unspecified) |  | inconclusive: 15.8 µM [inhibitor, partial curve]
Cc1cccc(N2CCN(c3nc(C)cc(C)c3C#N)CC2C)c1 (stereo unspecified) |  | inconclusive: 39.8 µM [inhibitor, single point]
O=[N+]([O-])c1ccc(CN2CCN(c3ccccc3)CC2)o1 |  | inconclusive: 22.4 µM [inhibitor, partial curve]
Cc1nc2ccccc2c(=O)n1/N=C/c1ccc(O)c(O)c1O |  | active: 7.08 µM
Clc1cccc(CNc2nnnn2-c2ccccc2)c1 | inactive: 5.97% | 
Cc1ccc(OCC(=O)Nc2ccc(N3CCCC3)cc2)cc1C |  | inconclusive: 15.8 µM [inhibitor, partial curve]
CC(=O)CSc1nnc(Cc2ccc([N+](=O)[O-])cc2)o1 | inactive: 0.68% | 
CCCC(=O)NC(c1cccs1)c1cc([N+](=O)[O-])c2cccnc2c1O (stereo unspecified) |  | inconclusive: 44.6 µM [inhibitor, single point]
COCCCNCCOCCSc1ccc(Cl)cc1 |  | inconclusive: 25.1 µM [inhibitor, partial curve]
Cn1c(=O)cc(C(=O)N/N=C/c2ccc(Cl)cc2)[nH]c1=O |  | inconclusive: 4.46 µM [inhibitor, partial curve]
N#CC1=C(N)Oc2n[nH]c(-c3cccs3)c2C1c1ccco1 (stereo unspecified) |  | inconclusive: 12.6 µM [inhibitor, partial curve]
Cc1ccc(NC(=O)c2sc(=S)n(-c3cc(C)ccc3F)c2N)cc1 |  | active: 17.7 µM

SMILES | activity, negative = inhibition | Potency
Cc1ccc2cccc(NC(=O)C(F)(F)F)c2n1 |  | inconclusive: 15.8 µM [inhibitor, partial curve]
O=C(NCc1ccc(F)cc1)c1cc2ccccn2n1 | inactive: -0.444% | 
CC(C)(C)OC(=O)N1CCN(C(=O)c2[nH]cnc2C(=O)NCC(=O)OCc2ccccc2)CC1 |  | inconclusive: 12.6 µM [inhibitor, partial curve]
O=C(O)c1ccc(NC(=S)NC(=O)c2cncc(Br)c2)cc1 |  | inconclusive: 3.55 µM [inhibitor, full curve]
Cc1ccc(NC(=O)c2cc([N+](=O)[O-])ccc2N2CCOCC2)cc1S(=O)(=O)N(C)C |  | inconclusive: 17.7 µM [inhibitor, single point]
O=C(NC(=S)Nc1nc2c(s1)CCCC2)c1ccccc1 |  | inconclusive: 2.51 µM [inhibitor, full curve]
CN1CCc2c(sc(NC(=O)c3cc(Cl)sc3Cl)c2C(N)=O)C1 |  | active: 31.6 µM
Cc1cc(-c2n[nH]c(=S)n2/N=C/C=C/c2ccco2)n[nH]1 |  | inconclusive: 15.8 µM [inhibitor, partial curve]
CCCCOc1ccc(C(=O)N(C)CC(=O)Nc2ccc(C)cc2)cc1 | inconclusive: 42.8% [activator] | 
CCCCOc1ccc(C2OC34CCCCC3C(C#N)(C#N)C2(C#N)C(=N)O4)cc1 (stereo unspecified) |  | inconclusive: 17.7 µM [inhibitor, single point]
COc1cc(OC)c(C2C(C(=O)O)c3ccccc3C(=O)N2C)cc1OC (stereo unspecified) |  | inconclusive: 15.8 µM [inhibitor, partial curve]
O=C(CC(=O)c1ccccc1O)c1cccc(F)c1 |  | inconclusive: 44.6 µM [inhibitor, single point]
Cc1ccc(N=Cc2cc(Cc3ccccc3Cl)cc([N+](=O)[O-])c2O)c(O)c1 |  | inconclusive: 6.29 µM [inhibitor, partial curve]
Cc1[nH]c2ccccc2c1C(=O)CNc1nccs1 |  | inconclusive: 39.8 µM [inhibitor, single point]
CCOc1ccc(CN(C)CC(=O)Nc2cccc3ccccc23)cc1OC |  | inconclusive: 15.8 µM [inhibitor, partial curve]
FCCCOc1ccc(-c2nccc(-c3ccc(Br)cc3)n2)cc1 | inactive: 3.61% | 
Cc1ccc(NC(=O)CCNCc2ccco2)cc1S(=O)(=O)N(C)C |  | inconclusive: 14.1 µM [inhibitor, partial curve]
COc1ccc(-n2c(CN3CCN(c4ccc(F)cc4)CC3)nc3ccc([N+](=O)[O-])cc3c2=O)c(OC)c1 | inactive: -15.5% | 
O=C1C2C(C(=O)N1/N=C/c1ccc(N3CCCCC3)o1)C1C=CC2C12CC2 (stereo unspecified) |  | inconclusive: 15.8 µM [inhibitor, partial curve]
CS(=O)(=O)N1CCCC(C(=O)NCCCN2CCc3ccccc3C2)C1 (stereo unspecified) |  | inconclusive: 19.9 µM [inhibitor, single point]
N/C(=N\OC(=O)COc1ccc(Cl)cc1)c1ccc(Cl)cc1 | inactive: 2.2% | 
Cc1ccc(C)c(CN2CCN(c3ncccn3)CC2)c1 |  | inconclusive: 25.1 µM [inhibitor, partial curve]
Oc1cccc2ccc[n+](CC(O)Cn3c4ccccc4c4ccccc43)c12 (stereo unspecified) |  | inconclusive: 0.63 µM [inhibitor, full curve]
CC12CN3CCN(CC(C3)/C1=N\NC(=O)Nc1cccc(Cl)c1)C2 | inactive: -1.5% | 

SMILES | activity, negative = inhibition | Potency
O=C(N/N=C/c1cccc2nccnc12)c1ccncc1 |  | inconclusive: 17.7 µM [inhibitor, single point]
Nn1c(SCC(=O)Nc2nccs2)nnc1C1CC1 |  | inconclusive: 25.1 µM [inhibitor, single point]
COc1cc(OC)c(CN2CCN(c3ccc(F)cc3)CC2)cc1Br |  | inconclusive: 19.9 µM [inhibitor, partial curve]
Cc1cc(=O)oc2cc(OC(C)C(=O)NCCCn3ccnc3)ccc12 (stereo unspecified) |  | inconclusive: 22.4 µM [inhibitor, partial curve]
CN1CC=C2C(C#N)=C(N)C(C#N)(C#N)[C@H](c3cccc(Cl)c3)C2C1 (stereo partly specified) |  | inconclusive: 44.6 µM [inhibitor, single point]
O=C(O)[C@@H]1[C@@H]2C[C@@H]2CN1c1ncccc1[N+](=O)[O-] |  | inconclusive: 7.06 µM [inhibitor, partial curve]
Cc1c(O)nc(SC2CC(=O)N(c3ccccc3)C2=O)[nH]c1=O (stereo unspecified) |  | inconclusive: 10 µM [inhibitor, partial curve]
COc1ccc2c(C#N)c3ccccn3c2c1 |  | inconclusive: 7.06 µM [inhibitor, partial curve]
CO[C@@]1(NC(=O)Cc2cccs2)C(=O)N2C(C(=O)O)=C(COC(N)=O)CS[C@@H]21 |  | inconclusive: 15.8 µM [inhibitor, partial curve]
CONc1nc2nonc2nc1NOC |  | inconclusive: 17.7 µM [inhibitor, single point]
COc1ccc(CN2CCN(S(=O)(=O)c3ccc(C)cc3)CC2)cc1Br |  | inconclusive: 19.9 µM [inhibitor, partial curve]
O=C(c1ccccc1)c1ccccc1N1C(=O)C=CC1=O |  | active: 15.8 µM
C/C(=N\Nc1nc2c(s1)CCCC2)c1ccc(Cl)cc1 |  | inconclusive: 17.7 µM [inhibitor, single point]
COC(=O)CC1C(=O)NCCN1C(=O)c1ccccc1 (stereo unspecified) | inactive: 1.8% | 
Cc1ccc(C)c(S(=O)(=O)NCCN2CCOCC2)c1 |  | inconclusive: 25.1 µM [inhibitor, partial curve]
COc1ccc(OCCn2ccnc2C)cc1 |  | inconclusive: 17.8 µM [inhibitor, partial curve]
CCOC(=O)c1c(N2C(=O)Nc3ccccc3N2O)n[nH]c1-c1cccc(Cl)c1 |  | inconclusive: 12.6 µM [activator, partial curve]
CCC(C)NC(=O)c1c(N)n(CC2CCCO2)c2nc3ccccc3nc12 (stereo unspecified) |  | inconclusive: 9.98 µM [inhibitor, partial curve]
O=C(CC1Nc2cccc3cccc(c23)NC1=O)Nc1ccc(F)cc1 (stereo unspecified) |  | inconclusive: 2.81 µM [inhibitor, partial curve]
CCCCN1C(=O)NC(=O)C2(Cc3cc(C)ccc3N(C)C2)C1=O (stereo unspecified) |  | inconclusive: 5 µM [inhibitor, full curve, poor fit]
CCOc1ccc2[nH]c3c(NCCN(C)C)ncnc3c2c1 | inactive: 10.7% | 
CCCCN(C)S(=O)(=O)c1ccc(C(=O)Nc2nnc(-c3ccco3)o2)cc1 |  | inconclusive: 15.8 µM [inhibitor, single point]
c1ccc(-c2cnc(SCCN3CCOCC3)n2CC2CCCO2)cc1 (stereo unspecified) |  | inconclusive: 17.7 µM [inhibitor, single point]

— PubChem BioAssay AID2451 (National Center for Advancing Translational Sciences (NCATS), 2010)
